By IC50 is meant the dose at which the fit gives 50% viability; a fit beyond the top or the lowest dose is shown as a bound at that dose. For AUC the same curve is integrated over the 256-fold range of doses and scaled to a fraction: 1 means no effect, lower means more sensitive. For part of these data: Where the top dose is marked as inferred, it was derived from the fitted curves, not read from the paper.

Our source for the AUC and IC50 values is the supplement of paper PMC4967469.

Common to all, as to test: Viability of human cancer cell lines after 72 h of drug (GDSC screen)
Compound in one experiment: C=CC(=O)Nc1ccc(C(=O)c2sc(Nc3ccc(N4CCN(C)CC4)cc3OC)nc2N)cc1 [XMD15-27]
The following applies: top dose 10.24 µM; top dose inferred. On the procedure: (§1)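 Human cancer cell lines in 384-well plates, medium with 10% serum, drug for 72 h over a 256-fold dose range (nine 2-fold or five 4-fold steps up to the top dose). Adherent lines were fixed and stained with the nucleic acid dye Syto60, suspension lines read with resazurin; signal relative to control wells, capped at 0 and 100%. One two-parameter sigmoid per drug and line, fitted in a mixed model over all curves with the slope shared within a line.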

Compound in a further experiment: CO[C@H]1C[C@@H]2CC[C@@H](C)[C@@](O)(O2)C(=O)C(=O)N2CCCC[C@H]2C(=O)O[C@H]([C@H](C)C[C@@H]2CC[C@@H](OC(=O)C(C)(CO)CO)[C@H](OC)C2)CC(=O)[C@H](C)/C=C(\C)[C@@H](O)[C@@H](OC)C(=O)[C@H](C)C[C@H](C)/C=C/C=C/C=C/1C [Temsirolimus]
To be noted: top dose 0.2 µM. The procedure:
as §1

Compound in the next experiment: CC(=O)O[C@@H]1[C@@H](OC(C)=O)[C@@H](O)[C@H](Oc2c(-c3ccc(O)cc3)oc3cc(O)cc(O)c3c2=O)O[C@H]1C [SL 0101-1]
To be noted: top dose 10 µM; top dose inferred. The procedure:
as §1

The IC50 is the midpoint of a concentration-inhibition curve. Turning to WM1552C (melanoma, adherent), the AUC amounted to 0.971 with XMD15-27, 0.853 with Temsirolimus and 0.969 with SL 0101-1. Further, the IC50 is over 10.2 µM in the experiment with XMD15-27, 0.158 µM with Temsirolimus and over 10 µM with SL 0101-1.

Take WM-115 (melanoma, adherent): the AUC is 0.952 with XMD15-27, 0.753 in the experiment with Temsirolimus and 0.962 with SL 0101-1. Besides, the IC50 with XMD15-27 is over 10.2 µM; in the experiment with Temsirolimus, 0.0805 µM; in the experiment with SL 0101-1 it was over 10 µM.

As to WSU-DLCL2 (B-cell lymphoma, suspension), the figures for the AUC in the experiment with XMD15-27, with Temsirolimus and with SL 0101-1 were 0.96, 0.453 and 0.991, respectively. Besides, the IC50 with XMD15-27 was over 10.2 µM; in the experiment with Temsirolimus, 0.0095 µM; in the experiment with SL 0101-1 it was over 10 µM.

In the case of WSU-NHL (lymphoid neoplasm, suspension), the AUC with XMD15-27 is 0.99; in the experiment with Temsirolimus, 0.341; with SL 0101-1, 0.99. Besides, the IC50 with XMD15-27 was over 10.2 µM; in the experiment with Temsirolimus it was 0.00479 µM; with SL 0101-1, over 10 µM.

As to YAPC (pancreas, adherent), the values for the AUC with XMD15-27, in the experiment with Temsirolimus and with SL 0101-1 were 0.982, 0.963 and 0.982, respectively. The IC50 with XMD15-27 is over 10.2 µM; with Temsirolimus it was over 0.2 µM; in the experiment with SL 0101-1 it was over 10 µM.

As for YH-13 (glioma, adherent), the AUC is 0.954 with XMD15-27, 0.609 with Temsirolimus and 0.981 with SL 0101-1. Besides, the figures for the concentration for half-maximal inhibition (IC50) with XMD15-27, with Temsirolimus and in the experiment with SL 0101-1 were over 10.2 µM, 0.0253 µM and over 10 µM, respectively.

With YKG-1 (glioma, adherent), the AUC with XMD15-27 was 0.982; with Temsirolimus, 0.787; in the experiment with SL 0101-1 it was 0.932. The concentration for half-maximal inhibition (IC50) with XMD15-27 is over 10.2 µM; in the experiment with Temsirolimus it was 0.0882 µM; in the experiment with SL 0101-1, over 10 µM.

As for YT (lymphoid neoplasm, suspension), the AUC in the experiment with XMD15-27 is 0.992; with Temsirolimus it was 0.354; with SL 0101-1, 0.959. For the same cell line, the IC50 in the experiment with XMD15-27 was over 10.2 µM; with Temsirolimus, 0.00528 µM; with SL 0101-1, over 10 µM.

Turning to no-11 (glioma, adherent), the values for the AUC with XMD15-27, in the experiment with Temsirolimus and with SL 0101-1 were 0.97, 0.886 and 0.969, respectively. For the same cell line, the figures for the half-inhibitory concentration (IC50) with XMD15-27, in the experiment with Temsirolimus and in the experiment with SL 0101-1 were over 10.2 µM, over 0.2 µM and over 10 µM, respectively.
